Structures are written as SMILES. The list shows a part of the results. Single values are uncertain, as repeats are few or missing.
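Also: cells treated in 1,536-well plates, then fixed and DAPI-stained, with nuclei counted from automated high-throughput microscope images.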

For the assay, the system named is A375. In words: cell count relative to DMSO control; melanoma cells; higher = more viable cells. The following applies: library dose: standard library concentration; 72 h.
Take `Cn1nnc2c(C(N)=O)ncn2c1=O` [temozolomide] + O=C(CCCCCCC(=O)Nc1ccccc1)NO [vorinostat] (first compound 10 µM, partner dose 0.4 µM): the cell count is 134%. Next, `Cn1nnc2c(C(N)=O)ncn2c1=O` [temozolomide] + NC(=O)Nc1cc(-c2cccc(F)c2)sc1C(=O)N[C@H]1CCCNC1 [AZD7762] (first compound 10 µM, partner dose 0.1 µM): 57.9%. For the compound `O=C(O)c1ccc2c(c1)nc(Nc1cccc(Cl)c1)c1ccncc12` + Nc1cccc2c1CN(C1CCC(=O)NC1=O)C2=O [lenalidomide] (first compound 2 µM, partner dose 5 µM), the cell count came to 73.8%. `O=C(Nc1cc(C(F)(F)F)cc(C(F)(F)F)c1)c1cc(Cl)ccc1O` + Cc1cc(Nc2cc(N3CCN(C)CC3)nc(/C=C/c3ccccc3)n2)n[nH]1 [ENMD2076] (first compound 0.08 µM, partner dose 0.2 µM) came in with a cell count of 71.2%.

For the compound `O=C(O)[C@@H]1[O][Sb](=[O])([O][Sb]2(=[O])[O][C@H]([C@H](O)CO)[C@H](O)[C@H](C(=O)O)[O]2)[O][C@H]([C@H](O)CO)[C@@H]1O` (some centres undefined) [stibogluconate] + CS(=O)(=O)CCNCc1ccc(-c2ccc3ncnc(Nc4ccc(OCc5cccc(F)c5)c(Cl)c4)c3c2)o1 [lapatinib] (first compound 10 µM, partner dose 4 µM), the cell count was 148%. For `Cn1nnc2c(C(N)=O)ncn2c1=O` [temozolomide] + C[C@@H]1CCN(C(=O)CC#N)C[C@@H]1N(C)c1ncnc2[nH]ccc12 [CP690550] (first compound 10 µM, partner dose 5 µM), the cell count turned out to be 97.4%. Next, `O=C(Nc1cc(C(F)(F)F)cc(C(F)(F)F)c1)c1cc(Cl)ccc1O` + NCC(=O)Nc1ccc(-n2nc(C(F)(F)F)cc2-c2ccc3c(ccc4ccccc43)c2)cc1 [OSU03012] (first compound 0.08 µM, partner dose 5 µM): 47.6%. Next, `O=C(Nc1cc(C(F)(F)F)cc(C(F)(F)F)c1)c1cc(Cl)ccc1O` + Cc1nc(Nc2ncc(C(=O)Nc3c(C)cccc3Cl)s2)cc(N2CCN(CCO)CC2)n1 [dasatanib] (first compound 0.08 µM, partner dose 0.02 µM): 61.4%. The result for `O=C(Nc1cc(C(F)(F)F)cc(C(F)(F)F)c1)c1cc(Cl)ccc1O` + COc1ccc(Cl)c(Nc2nc3ccccc3nc2NS(=O)(=O)c2cccc(NC(=O)C(C)(C)N)c2)c1 [XL147] (first compound 0.08 µM, partner dose 4 µM) reads 90.5%; that for `Cc1cc(N2CCOCC2)cc2[nH]c(-c3c(NC[C@@H](O)c4cccc(Cl)c4)cc[nH]c3=O)nc12` + C[C@@H]1CCN(C(=O)CC#N)C[C@@H]1N(C)c1ncnc2[nH]ccc12 [CP690550] (first compound 1 µM, partner dose 5 µM), 89.1%. With `O=C(Nc1cc(C(F)(F)F)cc(C(F)(F)F)c1)c1cc(Cl)ccc1O` + O=C(CCCCCCC(=O)Nc1ccccc1)NO [vorinostat] (first compound 0.08 µM, partner dose 0.4 µM), the cell count came out at 132%. `O=C(O)[C@@H]1[O][Sb](=[O])([O][Sb]2(=[O])[O][C@H]([C@H](O)CO)[C@H](O)[C@H](C(=O)O)[O]2)[O][C@H]([C@H](O)CO)[C@@H]1O` (some centres undefined) [stibogluconate] + Cc1nc(Nc2ncc(C(=O)Nc3c(C)cccc3Cl)s2)cc(N2CCN(CCO)CC2)n1 [dasatanib] (first compound 10 µM, partner dose 0.02 µM) gave a cell count of 65.5%. The result for `O=C(O)[C@@H]1[O][Sb](=[O])([O][Sb]2(=[O])[O][C@H]([C@H](O)CO)[C@H](O)[C@H](C(=O)O)[O]2)[O][C@H]([C@H](O)CO)[C@@H]1O` (some centres undefined) [stibogluconate] + Nc1ccn([C@@H]2O[C@H](CO)[C@@H](O)C2(F)F)c(=O)n1 [gemcitabine] (first compound 10 µM, partner dose 0.002 µM) reads 97.5%; that for `O=C(Nc1cc(C(F)(F)F)cc(C(F)(F)F)c1)c1cc(Cl)ccc1O` + Cc1cc(N2CCOCC2)cc2[nH]c(-c3c(NC[C@@H](O)c4cccc(Cl)c4)cc[nH]c3=O)nc12 [BMS536924] (first compound 0.08 µM, partner dose 1 µM), 117%.

The values above are taken from the supplement of paper PMC4604168 (melanoma cell lines).
